The results in this text go back to PubChem BioAssay AID1346428 (National Center for Advancing Translational Sciences (NCATS), 2018).

“And” between values parts separate entries of the source, which are not always exact repeats. Equal values may be shown once. Hit rate of the full screen: of about 48,000 compounds, about 1,200 (2.5%) were called active. Another 2% or so got no clear call; they are omitted.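 How the source made its calls: active means activation of at least 60% and not above a set upper limit (about 1 call in 100 departs from these limits); inconclusive means activation of 40% to 60%, or above that upper limit; inactive means activation under 40%.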 The list shows a part of the results.

In this experiment the target is Probable G-protein coupled receptor 32 (Homo sapiens) (UniProt O75388). Nature of the experiment: qHTS for Agonists of Human Resolvin D1 Receptor DRV1. Further: 0% is about no effect. As to conditions: CHO-K1 GPR32 beta-arrestin PathHunter luminescence, 90 min; at 76.9 µM; hits give high values; zero percent set by DMSO-only wells. The gist of the method: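 Readings come from a cell-based beta-arrestin complementation format: CHO-K1 GPR32 stable cells (2,500/well) treated 90 min with compounds, then beta-Gal substrate added for 1 h before chemiluminescence imaging.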
Chain of UniProt O75388 (O75388 whole entry, looked up): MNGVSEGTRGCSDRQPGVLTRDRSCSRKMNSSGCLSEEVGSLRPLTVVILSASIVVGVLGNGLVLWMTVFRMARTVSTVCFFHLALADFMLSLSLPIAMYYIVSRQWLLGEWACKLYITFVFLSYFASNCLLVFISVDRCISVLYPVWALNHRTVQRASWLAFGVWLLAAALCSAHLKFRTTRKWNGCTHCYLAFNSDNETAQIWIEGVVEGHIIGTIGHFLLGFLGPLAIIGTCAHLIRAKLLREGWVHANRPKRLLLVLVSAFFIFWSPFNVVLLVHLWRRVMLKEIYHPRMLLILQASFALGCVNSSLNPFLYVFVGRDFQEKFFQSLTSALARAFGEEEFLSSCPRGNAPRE
On the technique in general: Quantitative high-throughput screening tests each substance at several concentrations.
On to `CCCCC(=O)Nc1cc(-c2nc3ccccc3o2)ccc1OC`, for which the activation was inactive: 11.5%.

For `CCOc1ccc(CC(=O)NCCS(=O)(=O)N2CCN(c3ccccc3OC)CC2)cc1`, the activation is inactive: 17.6%.

Regarding `CCOC(=O)c1noc2ncn(CC(=O)Nc3ccc(OC)c(Cl)c3)c(=O)c12`, the activation is inactive: 19.1%.

As to `Cc1ccc(Cc2nc3ccccc3nc2SCC(=O)N2CCCCC2)cc1`, the activation was inactive: -16.9%.

As to `Cc1nc(C)c(CCNS(=O)(=O)c2ccc(C)c(C)c2)s1`, the activation was inactive: 19.4%.

As to `CCOc1ccccc1NC(=O)c1c(NCc2ccc(C)o2)sc2c1CCCCC2`, the activation was inactive: -13.7%.

As for `O=c1oc2c(F)cc(F)cc2cc1S(=O)(=O)c1ccc(F)cc1`, the activation is inactive: -13.7%.

`CCOc1ccc(CN2CCN(S(=O)(=O)c3ccc(Cl)cc3)CC2)cc1`: the activation was inactive: -15.2%.

For `CCOc1ccc(N(CC)C(=O)c2cc3c(=O)oc4ccccc4c3s2)cc1`, the activation was inactive: 21.3%.

For `Cc1oc(-c2ccccc2F)nc1CN1CCC(C(=O)NCCc2ccc(Cl)cc2)CC1`, the activation is inactive: 14.4%.

For the compound `O=C(Cn1cc(S(=O)(=O)c2ccc(F)cc2)c(=O)c2cc3c(cc21)OCO3)Nc1ccccc1`, the activation is inactive: -17.5%.

Turning to `Cc1ccn2c(=O)c(C(=O)Nc3ccc(F)c(C(F)(F)F)c3)cnc2c1`, the activation is inactive: 20.4%.

In the case of `CCOc1ccc(-c2nonc2NC(=O)c2oc3ccc(Cl)cc3c2C)cc1`, the activation was inactive: -11.2%.

`Cc1cccc(NC(=O)C(=O)NCC(c2cccnc2)N2CCc3ccccc32)c1C` (centres undefined): the activation is inactive: -3.32%.

On to `CCOC(=O)c1cc(=O)c2c(OCC(COc3cccc4oc(C(=O)OCC)cc(=O)c34)OC(=O)[C@@H](N)CCCCN)cccc2o1`, for which the activation was inactive: 4.16%.

On to `COc1ccc(-c2nnn3c2nc(NCc2ccccc2)c2ccccc23)cc1`, for which the activation was inactive: 22.3%.

Turning to `COC(=O)c1ccccc1NC(=O)CCCn1nc(C)c2sc3ccccc3c2c1=O`, the activation was inactive: -2.07%.

On to `COc1cccc(NC(=O)c2oc3ccccc3c2NC(=O)COc2ccccc2C)c1`, for which the activation is inactive: 0.177%.

On to `CC1=C(C(=O)Nc2ccc(C)cc2C)C(CC(C)C)n2nc(SCc3ccccc3C)nc2N1` (centres undefined), for which the activation is inactive: 5.91%.

Regarding `COc1ccc(Br)cc1CNC(=O)CCC(=O)N1CCSc2ccccc21`, the activation was inactive: -19.8%.

Take `COc1ccccc1CNC(=O)Nc1ccc2c(c1)N(C)C(=O)c1ccccc1S2`: the activation is inactive: -11.9%.

In the case of `O=C(CSc1nc2c([nH]c3ccccc32)c(=O)n1-c1ccc(F)cc1)N1CCCCCC1`, the activation is inactive: -1.67%.

Take `COc1cc(NC(=O)CCc2c(C)nc3c(c(C)nn3-c3ccccc3)c2C)cc(OC)c1OC`: the activation is inactive: 35.1%.

On to `CN1C(=O)C2CCCCN2c2ccc(C(=O)NCc3ccccc3Br)cc21` (centres undefined), for which the activation is inactive: -17.8%.

`COc1cccc2cc(-c3nc(-c4cccs4)no3)c(=O)oc12`: the activation was inactive: -2.83%.

In the case of `O=C(Cn1cc(SCc2cccc(C(F)(F)F)c2)c2ccccc21)N1CCCCCC1`, the activation was inactive: -30.7%.

For the compound `Cc1ccc(NS(=O)(=O)c2c(C(=O)N3CCCCCC3)c(C)n(C)c2C)cc1F`, the activation was inactive: -0.0676%.

With `COc1cccc(-c2cc(C(=O)NCCc3ccc(C)cc3)[nH]n2)c1`, the activation is inactive: 15.8%.

Consider `CCOC(=O)c1c(C)c(C(=O)NCCc2ccc(OC)cc2)c(C)n1CC`, for which the activation is inactive: 2.35%.

Consider `CCOc1ccc(CNC(=O)Cn2nc(C)c3sc4ccccc4c3c2=O)cc1`, for which the activation was inactive: -12.6%.

Take `NCC(O)C1CCCCCCC1` (centres undefined): the activation is inactive: 9.95%.

For `O=C(Nc1ccc(Br)cc1)c1ccc(Br)c(S(=O)(=O)NCc2ccccc2)c1`, the activation is inactive: 1.65%.

On to `CCc1nn(CC(=O)Nc2c(C)cc(C)cc2C)c(=O)c2cc3sccc3n12`, for which the activation was inactive: -9.16%.

Take `C=Cc1ccc(Cn2c(=O)n(-c3ccccc3C)c(=O)c3c4c(sc32)CN(C(C)=O)CC4)cc1`: the activation was inactive: -22.4%.

Turning to `Cc1ccc(N(C)S(=O)(=O)c2ccc3[nH]cc(C(=O)O)c(=O)c3c2)cc1C`, the activation was inactive: -19.4%.

As to `Cc1ccc(C(c2sc3nc(-c4ccco4)nn3c2O)N2CCCCC2)cc1` (centres undefined), the activation is inactive: 8.91%.

With `CC(=O)c1ccc(NC(=O)CSc2nc(-c3ccccc3F)nc3c2c(=O)n(C)c(=O)n3C)cc1`, the activation is inactive: -3.3%.

For `COc1ccc(C)cc1NC(=O)CN1C(=O)CCc2cc(S(=O)(=O)N3CCOCC3)ccc21`, the activation is inactive: 11.2%.

As to `Cc1ccc(C(=O)Nc2ccc3c(c2)N(C)C(=O)c2ccccc2S3)cc1F`, the activation is inactive: -6.41%.

As for `CCN(Cc1ccccc1)C(=O)Nc1ccc2c(c1)N(C)C(=O)c1ccccc1S2`, the activation was inactive: -12.7%.

Take `CCOC(=O)c1c(-c2ccc(C)cc2)csc1NC(=O)c1cc(=O)c2cc(C)c(C)cc2o1`: the activation is inactive: -0.321%.

For the compound `CC1Cc2cc(S(=O)(=O)NCc3ccc(F)cc3)ccc2N1C(=O)C1CCC1` (centres undefined), the activation was inactive: 6.24%.

`CN1CCC(=C2c3ccccc3C=Cc3ccccc32)CC1`: the activation was inactive: -6.87% and inactive: -12.6%.

As to `Cc1ccc(NC(=O)C2CCN(c3nc4ccccc4[nH]3)CC2)cc1Cl`, the activation is inactive: -22.6%.

Consider `O=C(NCc1cccs1)c1ccc(CSc2nc3ccncc3n2Cc2cccc(F)c2)cc1`, for which the activation is inactive: -9.25%.

As for `C=CCN1C[C@H](C(=O)N(CCCN(C)C)C(=O)NCC)C[C@@H]2c3cccc4[nH]cc(c34)C[C@H]21`, the activation is inactive: 7.5%.

As to `CCCC(=O)NCc1nc2cccnc2n1Cc1ccc(F)cc1`, the activation was inactive: -8.52%.

In the case of `Cc1cccc(Cn2nnc3c(=O)[nH]c(C4CCN(C(=O)c5ccccc5F)CC4)nc32)c1`, the activation is inactive: -17.5%.

With `Cc1cccc(NC(=O)CSc2nc(=O)n(CCN3CCOCC3)c3c2CCC3)c1C`, the activation was inactive: -16.1%.

As for `O=C(Nc1cc(-c2nc3ccccc3o2)ccc1Cl)c1cccc2c(Cl)cccc12`, the activation was inactive: -17.4%.

Regarding `Cc1ccc(NC(=O)Cn2c(=O)n(Cc3ccc4c(c3)OCO4)c(=O)c3ccc(C(=O)NC4CCCCC4)cc32)cc1`, the activation was inactive: 22.4%.

On to `CCOC(=O)c1ccc(NC(=O)Cc2coc3cc(C)cc(C)c23)cc1`, for which the activation is inactive: -36.3%.

On to `CCN(C(=O)CSc1nnc(C)n2c1cc1occc12)c1ccccc1`, for which the activation is inactive: -17.2%.

As to `CCOc1ccc(NC(=O)c2cc3c(=O)n4cccc(C)c4nc3s2)cc1`, the activation is inactive: -8.51%.

Take `COc1ccc(S(=O)(=O)NCc2cccn2Cc2cccc(C)c2)cc1OC`: the activation is inactive: 24.5%.

Turning to `CCOC(=O)c1c(-c2ccccc2)oc2ccc(NS(=O)(=O)c3ccccc3)cc12`, the activation was inactive: -6.91%.

Take `CCCCc1nn2c(=O)cc(COC(=O)c3ccccc3NC(=O)C3CCCCC3)nc2s1`: the activation was inactive: -14.9%.

As for `O=C(CSc1cn(CC(=O)N2CCOCC2)c2ccccc12)Nc1ccccc1C(F)(F)F`, the activation is inactive: -17.2%.

Turning to `COc1ccc(CNC(=O)c2cnc(N3CCCC3)nc2C)cc1`, the activation was inactive: -2.34%.

As to `Cc1cc([N+](=O)[O-])ccc1NC(=O)CSc1nccn1C`, the activation was inactive: -3.18%.

In the case of `CCOC(=O)CSc1nc2c([nH]c3ccccc32)c(=O)n1-c1ccc(OCC)cc1`, the activation was inactive: -6.17%.

Regarding `COc1ccc(-c2c(C)c3ccc(O)c(CN4CCN(C)CC4)c3oc2=O)cc1OC`, the activation is inactive: 1.83%.

`COc1ccc2c(c1)c1c(c(=O)n(-c3cccc(Cl)c3)c(=O)n1C)n2C`: the activation was inactive: -0.0872%.

Take `Cc1ccccc1C(=O)Nc1nc2c(s1)CC(C(C)(C)C)CC2` (centres undefined): the activation is inactive: 1.26%.

Consider `COc1ccc(S(=O)(=O)c2cn(CC(=O)Nc3ccccc3)c3ccc(Cl)cc3c2=O)cc1`, for which the activation was inactive: 32.7%.

For `Cc1cccc2sc(N(Cc3cccnc3)C(=O)C3CCCCC3)nc12`, the activation was inactive: -32.5%.

As to `COc1ccc(CSc2nc3ccncc3n2Cc2nc(-c3ccc(OC)c(OC)c3)oc2C)cc1`, the activation is inactive: -15.4%.

Regarding `COc1ccc(C(=O)Nc2onc3c2CCCC3)cc1`, the activation was inactive: 13.1%.

On to `COCCCn1c(=N)c(C(=O)NC2CCCCC2)cc2c(=O)n3ccccc3nc21`, for which the activation was inactive: 13.2%.

As for `COc1ccc(NC(=O)Cn2cnc3c(nc4n3CCCCC4)c2=O)c(OC)c1`, the activation was inactive: -10.7%.

As to `COc1ccc(C2=CC(c3ccc(N(C)C)cc3)n3nnnc3N2)cc1` (centres undefined), the activation was inactive: -19%.

Turning to `Cc1c(CNC2CCCCCC2)c(C(=O)O)c(C)n1Cc1c(F)cccc1Cl`, the activation was inactive: -2.86%.

For `CCOC(=O)c1ccccc1NC(=O)Cc1c(C(=O)O)c(C)cn1C`, the activation was inactive: 1.37%.

Regarding `CCOC(=O)c1ccc(N2C(=O)c3n[nH]c(C)c3C2c2ccc(O)c(OC)c2)cc1` (centres undefined), the activation was inactive: 21.2%.

Take `COc1ccc(N2CCN(C(=O)Cn3cnc4sc(C)c(S(=O)(=O)N5CCC(C)CC5)c4c3=O)CC2)cc1`: the activation was inactive: -11.7%.

As for `Cc1ccc(-n2ncc(C(=O)N3CCN(c4ccccn4)CC3)c2C2CCN(C(=O)OC(C)(C)C)CC2)cc1C`, the activation is inactive: -3.62%.

In the case of `Cc1cc(=O)oc2c3c(ccc12)OCN(Cc1ccccc1Cl)C3`, the activation is inactive: -1.22%.

Turning to `Cc1cccc(CS(=O)(=O)CC2Nc3ccc(C(=O)NCc4ccccc4)cc3NC2=O)c1` (centres undefined), the activation was inactive: -3.5%.

As to `O=C(NC1(C(F)(F)F)NC(=O)N(CCc2ccccc2)C1=O)c1ccccc1F` (centres undefined), the activation is inactive: 19.9%.

Take `COc1cccc(CSc2nc3cc(OC)c(OC)cc3c3nc(CCn4nc(C)cc4C)nn23)c1`: the activation was inactive: -1.56%.

Take `CCOc1ccc2nc(N(Cc3cccnc3)C(=O)c3ccc4c(c3)OCCO4)sc2c1`: the activation is inactive: -6.42%.

In the case of `COC(=O)c1cc2sc(C)cc2n1Cc1ccc(F)cc1Cl`, the activation was inactive: -3.55%.

For `COc1ccccc1CNC(=O)Cn1c(=O)ccc2cc(S(=O)(=O)N3CCC(C)CC3)ccc21`, the activation was inactive: -5.4%.

Regarding `COC(=O)c1c(C)oc2c1cc(NS(=O)(=O)c1c(C)cc(C)cc1C)c1ccccc12`, the activation was inactive: -10.9%.
